In all, about 110,000 compounds were measured (“z-score”: median about -0.1, highest 2% from about 2 on). This is one part of the list. The source made the active and inactive calls.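 The calls were made as follows: active = z-score in the third read window above 3 or below -3; inactive = the rest.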
What follows are compounds tested against Metabotropic glutamate receptor 8 (Rattus norvegicus) (UniProt P70579) (assay: rat mGluR8 modulators via GIRK flux, primary screen, cell-based, thallium flux, HTS (AID 488969)). Conditions: HEK293 rat mGluR8, GIRK (G protein-gated inwardly rectifying potassium channel) thallium flux, FluoZin2; at 10 µM; stronger effect = higher value; submaximal glutamate (EC20) added with thallium.
UniProt P70579, sequence (P70579 whole entry, looked up): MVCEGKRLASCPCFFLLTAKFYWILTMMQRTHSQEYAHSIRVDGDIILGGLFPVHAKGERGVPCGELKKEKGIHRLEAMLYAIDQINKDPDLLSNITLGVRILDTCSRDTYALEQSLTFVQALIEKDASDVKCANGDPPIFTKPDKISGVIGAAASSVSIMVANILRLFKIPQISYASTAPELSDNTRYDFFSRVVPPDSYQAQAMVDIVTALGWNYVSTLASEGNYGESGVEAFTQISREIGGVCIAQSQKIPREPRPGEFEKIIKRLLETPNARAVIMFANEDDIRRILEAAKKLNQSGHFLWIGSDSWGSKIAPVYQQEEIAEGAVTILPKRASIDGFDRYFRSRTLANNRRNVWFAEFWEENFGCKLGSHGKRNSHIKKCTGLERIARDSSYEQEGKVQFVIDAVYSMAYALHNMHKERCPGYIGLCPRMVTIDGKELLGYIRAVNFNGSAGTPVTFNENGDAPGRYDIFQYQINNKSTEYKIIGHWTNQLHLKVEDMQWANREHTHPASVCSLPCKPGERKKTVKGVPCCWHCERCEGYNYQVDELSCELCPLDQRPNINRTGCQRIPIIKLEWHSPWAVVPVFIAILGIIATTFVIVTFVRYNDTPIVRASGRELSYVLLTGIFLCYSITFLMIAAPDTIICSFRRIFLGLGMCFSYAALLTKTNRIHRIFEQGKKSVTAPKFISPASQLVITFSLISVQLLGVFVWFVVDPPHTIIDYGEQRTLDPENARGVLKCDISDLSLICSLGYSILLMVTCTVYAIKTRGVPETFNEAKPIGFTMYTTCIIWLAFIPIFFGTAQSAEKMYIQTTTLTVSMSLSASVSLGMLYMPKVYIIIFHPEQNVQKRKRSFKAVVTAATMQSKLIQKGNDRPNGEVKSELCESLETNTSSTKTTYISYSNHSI

First: COc1cc(/C=C(/C(=O)c2cccs2)c2nc3ccccc3[nH]2)cc(OC)c1O
Second: COc1cc(/C=C(/C#N)c2nc3ccccc3[nH]2)ccc1OCC(=O)Nc1ccccc1C
The z-score of the first is higher: -0.306 for the first, -0.788 for the second.

Compared with `CCOC(=O)C1=C(Cn2cnc3ccccc32)NC(=O)NC1c1ccc(OC)cc1` (stereo not given), `CCOc1cc2c(cc1OCC)C(c1ccc(OC)cc1)N(c1ccccc1)C(=O)C2` (stereo not given) is lower in z-score: 0.25 for the first, -0.547 for the second.

Compared with `CCCc1nnc(NC(=O)CCCC(=O)O)s1`, `CC(O)CN(CCC(N)=O)CCC(N)=O` (stereo not given) is lower in z-score: 0.133 for the first, 0.0155 for the second.

First: O=c1c2ccccc2nc(-c2ccc(Br)cc2)n1Cc1ccccc1
Second: O=C(Nc1ccccc1SCC1CSc2nc3ccccc3c(=O)n21)c1cccc(Cl)c1 (stereo not given)
The z-score of the first is higher: 0.236 for the first, -0.742 for the second.

Compared with `O=C(Nc1ccc(Br)cc1Cl)Nn1cnnc1`, `CCN(CC)CC(=O)Nc1ccc(C)cc1Br` is lower in z-score: 0.372 for the first, -0.354 for the second.

Compared with `O=C(CCN1C(=O)S/C(=C\c2cccs2)C1=O)NC1=NCCS1`, `CCCN1C(=O)/C(=C/c2c(NCCCOCC)nc3c(C)cccn3c2=O)SC1=S` is lower in z-score: -0.157 for the first, -0.31 for the second.

Compared with `CCCCCCn1c(SCCN2CCOCC2)nc2c1c(=O)[nH]c(=O)n2C`, `CCOC(=O)c1cnc2c(C(=O)OC)cccc2c1NCCN1CCOCC1` is lower in z-score: 0.139 for the first, 0.0487 for the second.

Compared with `O=c1c(Cc2ccc(Cl)cc2)c(O)ccn1Cc1ccccc1`, `CCOC(=O)c1nnc(-c2ccccc2)nc1Oc1ccc(Cl)cc1` is higher in z-score: -0.13 for the first, 0.0266 for the second.

Going from `CCOc1ncccc1C(=O)OCC(=O)Nc1ccc(S(=O)(=O)N2CCOCC2)cc1` to `Cc1ccc(S(=O)(=O)N2CCC(C(=O)NCCc3ccccc3)CC2)cc1`, the z-score rises from -0.343 to 0.763.

Going from `Cc1ccc(Oc2ccc(NC(=O)CCC(=O)OCC(=O)c3cccs3)cc2)cc1C` to `CCN(CC)S(=O)(=O)c1cc(NC(=O)CCCOc2ccc(C(C)=O)cc2)ccc1C`, the z-score falls from -0.166 to -0.346.

Compared with `CCN(CC)c1ccc(/C=N/NC(=O)c2cccc(S(=O)(=O)Nc3ccccc3OC)c2)c(O)c1`, `CNS(=O)(=O)c1cccc(C(=O)OCC(=O)Nc2ccccc2OC(F)F)c1` is higher in z-score: -0.382 for the first, -0.0739 for the second.

Going from `CCOC(=O)N1CCN(C(=O)COc2cccc3c2CCN(Cc2cccc(C)c2)C3=O)CC1` to `CCOC(=O)N1CCN(C(=O)COc2cc(=O)n(C)c3ccccc23)CC1`, the z-score rises from -1.44 to -0.979.

First: Cc1nnc(SCc2ccc(C(=O)Nc3cc(Cl)ccc3C)cc2)s1
Second: Cc1ccc(NC(=O)c2snc3ccc(Cl)cc23)cc1C
The z-score of the first is lower: -0.409 for the first, 0.00746 for the second.

Compared with `CCc1ccc2c(c1)C1(SC(NC(C)=O)=NN1C(C)=O)C(=O)N2C(C)C` (stereo not given), `Cc1cccc(C)c1NC(=O)Cn1cnc2c(=O)n(C)c(=O)n(C)c21` is higher in z-score: -0.0638 for the first, 0.156 for the second.

Going from `CN(C)/C=C(/C(=O)c1ccc(Cl)cc1)S(=O)(=O)c1ccc(Cl)cc1` to `COc1ccc(N(C(=O)c2ccco2)S(=O)(=O)c2ccc(F)cc2)cc1`, the z-score falls from -0.209 to -0.326.

Going from `Cc1cc(NS(=O)(=O)c2ccc(NC(=O)CSc3nnc(-c4ccco4)n3N)cc2)nc(C)n1` to `COc1cccc(NC(=O)CSc2nc3c(c(-c4ccco4)c2C#N)CCCC3)c1`, the z-score falls from 0.0831 to -0.188.

Compared with `Cc1c(C(=O)NCC2CCCO2)oc2ccc3c(c12)C(=O)CC(C)(C)O3` (stereo not given), `N#Cc1cn(CC(=O)NCC2CCCO2)c2ccccc12` (stereo not given) is higher in z-score: -0.495 for the first, 0.16 for the second.

Compared with `Cc1ccc2nc(-c3cc(N)cc(N)c3)oc2c1`, `CCOC(=O)C1=C(C)OC(N)=C(C#N)C1c1cncc(-c2ccc(F)cc2)c1` (stereo not given) is higher in z-score: -0.108 for the first, 2.92 for the second.

First: COc1ccc(Oc2c(C)oc3c(CN(C)C)c(O)ccc3c2=O)cc1
Second: COc1ccc2[nH]c(=O)c(CN(Cc3cccs3)S(=O)(=O)c3c(C)ccc4nsnc34)cc2c1
The z-score of the first is higher: 0.571 for the first, -0.174 for the second.

Compared with `CCn1c(CCCOc2ccc(Cl)cc2Cl)nnc1SCC(=O)Nc1cccc(F)c1`, `O=C(CSc1nnc(Cc2cccs2)n1Cc1ccco1)Nc1ccc(Cl)cc1Cl` is lower in z-score: -0.135 for the first, -0.136 for the second.

Going from `CC1=C(C(N)=O)C(c2ccco2)C(C(N)=O)=C(C)N1` to `CCOC(=O)CC1=C(C(=O)OCC)C(c2cccnc2)C(C#N)=C(N)O1` (stereo not given), the z-score falls from 0.671 to 0.236.

First: Cc1ccc2c(n1)sc1c(N)ncnc12
Second: CCOC(=O)c1c(C)nc2ccccc2c1C
The z-score of the first is higher: 0.306 for the first, -0.26 for the second.

Compared with `O=C(C1=C(O)C(=O)N(c2ncccn2)C1c1cccs1)c1ccco1` (stereo not given), `COc1ccc(NC(=O)c2ccccc2NC(=O)c2ccco2)c(OC)c1` is higher in z-score: -0.405 for the first, 0.217 for the second.

Compared with `CCOc1ccc(NC(=O)CN2CCN(CC(=O)Nc3ccc(F)c(F)c3)CC2)cc1`, `Cc1ccc(OCC(=O)Nc2ccc3c(c2)nc2n3CCOC2)cc1` is lower in z-score: -0.0841 for the first, -0.116 for the second.

Compared with `Cc1cc(Br)cc2c(C(=O)Nc3c(C)n(C)n(-c4ccccc4)c3=O)cc(-c3cccs3)nc12`, `O=C(Nc1ccc2sc3ccccc3c(=O)c2c1)c1ccccc1Cl` is higher in z-score: -1.55 for the first, -0.0532 for the second.

First: CCOc1cc2[nH]c(=S)n(CCc3ccc(OC)c(OC)c3)c(=O)c2cc1OCC
Second: CCOc1cc(CNc2ccc3[nH]c(=O)[nH]c3c2)ccc1OCC(=O)NC(C)(C)C
The z-score of the first is higher: 0.145 for the first, -0.18 for the second.

Compared with `COc1ccc(F)cc1S(=O)(=O)NC1CCCCCC1`, `CNS(=O)(=O)c1cc(OC)ccc1OC` is higher in z-score: -2.12 for the first, -0.202 for the second.

First: COc1ccc(C2=Nc3ccccc3OC2)cc1
Second: COc1ccc(/C=C/C(=O)NCc2ccccn2)cc1
The z-score of the first is lower: -0.349 for the first, 0.0932 for the second.

First: O=C(COc1ccccc1F)N1c2ccccc2CCc2ccccc21
Second: CCOC(=O)Nc1ccc2c(c1)N(C(=O)CCN1CCN3CCCC3C1)c1ccccc1CC2 (stereo not given)
The z-score of the first is lower: -0.375 for the first, -0.0738 for the second.

First: Cc1c(CCC(=O)O)c(=O)oc2cc3occ(-c4ccc(F)cc4)c3cc12
Second: Cc1cc(C)n2nc(CC(=O)NCc3ccc(F)cc3)nc2n1
The z-score of the first is higher: 1.01 for the first, -0.0948 for the second.

Compared with `Cc1cc(OCc2ccc(C(=O)NN=C3CCCC3)cc2)ccc1Cl`, `COc1ccccc1NC(=O)c1ccc(NC(=O)COC(=O)C2CCCCC2)cc1` is lower in z-score: -0.135 for the first, -0.369 for the second.

Compared with `Cc1cc(Nc2ccccc2)n(-c2ccccc2)n1`, `C(/C=C/c1ccccc1)=N/N1CCN(c2ccccc2)CC1` is lower in z-score: 0.00239 for the first, -0.292 for the second.

Going from `CCOC(=O)CNC(=O)CSc1nnc(-c2ccncc2)n1-c1ccc(Cl)cc1` to `Cc1ccc(-n2c(SCc3nc4ccccc4[nH]3)nnc2-c2ccncc2)cc1`, the z-score falls from -0.00946 to -0.18.

First: O=C(COc1ccccc1Cl)NC(=O)NC1CCCC1
Second: O=C(NC1CCC(C(=O)O)CC1)OCc1ccccc1 (stereo not given)
The z-score of the first is higher: 0.502 for the first, -0.311 for the second.

First: O=C(c1csc2ccccc12)n1cccn1
Second: Cc1c(Cc2ccccc2)sc(N)c1C(N)=O
The z-score of the first is lower: -0.242 for the first, 0.0645 for the second.

First: CCn1ccc2cc(OC)ccc2c1=S
Second: COc1ccc(NC(=S)N2CCC(c3nc4ccc(Cl)cc4[nH]3)CC2)c(OC)c1
The z-score of the first is higher: -0.0313 for the first, -0.576 for the second.

Going from `CC(C)CCn1nc(C(=O)OC(C)C(=O)NC(N)=O)c2ccccc2c1=O` (stereo not given) to `CC1=C(C(=O)OC(C)C)C(c2c[nH]c3ccccc23)n2ncnc2N1` (stereo not given), the z-score rises from -0.395 to -0.273.

First: Cc1ccc(-n2nc(CC#N)c(C#N)c2N)cc1Cl
Second: COc1cccc(/C=N/n2nnnc2N)c1OCc1ccccc1Cl
The z-score of the first is lower: -0.281 for the first, -0.062 for the second.

Going from `NC(=S)N=Nc1c(O)n(Cc2ccc(Br)cc2)c2ccccc12` to `NC(=O)C1CCCN(C(=O)Nc2cccc3ccccc23)C1` (stereo not given), the z-score rises from -0.0836 to 0.107.

First: O=C(C(Cc1ccccc1)N1C(=O)C2C3CCC(C3)C2C1=O)N1CCCCC1 (stereo not given)
Second: O=C(c1cccc(C(F)(F)F)c1)N1CCN(C2CCCCC2)CC1
The z-score of the first is lower: 0.123 for the first, 0.215 for the second.

Going from `CCSc1nc(=S)n(-c2ccccc2)c(C)c1C(C)=O` to `O=c1[nH]c(SCc2n[nH]c(=S)n2-c2ccccc2)nc2sc3c(c12)CCC3`, the z-score falls from -0.643 to -1.95.

First: O=C(CN1CCN(c2ncccn2)CC1)N1CCN(C(c2ccccc2)c2ccccc2)CC1
Second: Cc1ccc(C(=O)N2CCN(c3cc(=O)[nH]nc3-c3ccccc3)CC2)cc1
The z-score of the first is lower: -1.15 for the first, -0.0168 for the second.

First: CN(C)c1ccc(/C=C2\CCCCC2=O)cc1
Second: CC(=O)Nc1nc2c(c3c1c(=O)oc1ccccc13)CCCCC2
The z-score of the first is higher: -0.138 for the first, -0.32 for the second.

Compared with `CC1CCCN(CC(O)CN)C1` (stereo not given), `C1CCC(OCCN2CCN(CCOC3CCCCC3)CC2)CC1` is lower in z-score: 0.769 for the first, -0.0284 for the second.

Compared with `CNC(=S)N1C2CCC1CC(NC(=O)NC13CC4CC(CC(C4)C1)C3)C2` (stereo not given), `COc1cc2c(cc1C1NC(=S)NC(C)=C1C(=O)N(C)C)CCCC2` (stereo not given) is higher in z-score: -0.976 for the first, -0.149 for the second.

Going from `Cc1ccc(C)n1-n1cnc2sc(-c3ccccc3)cc2c1=O` to `CC(C)c1cccc(C(C)C)c1NC(=O)Cn1c(=O)cnc2ccccc21`, the z-score rises from -0.837 to 0.939.

First: S=C(NC1CCCCC1)N(CCc1ccccc1)CCc1ccccc1
Second: CC1CCN(C(C(=O)Nc2ccc(C(C)C)cc2)c2ccc3c(c2)OCO3)CC1 (stereo not given)
The z-score of the first is lower: -0.15 for the first, -0.141 for the second.

Compared with `Cc1cc2c(cc1C)CSC(c1ccccc1O)SC2`, `CCCC(=O)Oc1ccccc1C1SCc2cc(C)c(C)cc2CS1` is higher in z-score: -0.181 for the first, -0.18 for the second.

Going from `Cc1ccc(-n2c3c(c(=O)[nH]c2=O)C(NS(=O)(=O)c2ccc(C)cc2)(C(F)(F)F)C(=O)N3)cc1` (stereo not given) to `CNS(=O)(=O)c1cnccc1N1CCN(c2cccc(C)c2)CC1`, the z-score falls from -0.092 to -0.611.

Compared with `COc1cc(CCC(=O)N2CCN(S(=O)(=O)c3ccc(C)c(C)c3)CC2)cc(OC)c1OC`, `COc1cc(-c2nc(-c3ccccc3)c(-c3cc([N+](=O)[O-])ccc3C)[nH]2)cc(OC)c1OC` is higher in z-score: -1.6 for the first, -0.413 for the second.

Going from `COc1cccc2sc(Nc3nc(-c4cc5ccccc5oc4=O)cs3)nc12` to `CSc1nc2nc(-c3ccccc3)cc(C(F)(F)F)n2n1`, the z-score falls from 0.111 to 0.0884.

Going from `COc1ccc(C=NCC2COc3ccccc3O2)cc1OC` (stereo not given) to `COC(=O)Cc1cc(=O)[nH]c(/N=C(\N)Nc2ccc(C)cc2)n1`, the z-score falls from 0.0101 to -0.0949.

Compared with `Cc1ccc(NC(=O)c2cncc(Br)c2)cc1S(=O)(=O)N(C)C`, `CCN(CC)S(=O)(=O)c1cc(NS(=O)(=O)c2cc(Cl)ccc2Cl)ccc1C` is lower in z-score: -0.106 for the first, -0.28 for the second.

Compared with `C=CCSc1ccsc1C(=O)O`, `CCC(=O)c1ccc(O)c(CC=C(C)C)c1` is lower in z-score: 0.112 for the first, -0.107 for the second.

Work on `O=C(OCc1c(F)cccc1Cl)c1cnccn1` yielded a z-score of 0.177.

With `CCOC(=O)N1CCC(NC(=O)c2cnn3c2NC(c2ccco2)CC3C(F)(F)F)CC1` (stereo not given) the z-score was active: 4.33.
